# Data from the supplement of paper PMC8728848.
# The other results are listed elsewhere or left out.
# Tests used:
# Experiment in all cases: glycan array binding signal (z-score within array); higher = stronger binding
# Settings in all cases: glycan notation: IUPAC condensed, linker removed
# [1] = molecular target: Neu5Ac(a2-3)Gal(b1-4)GlcNAc(b1-6)[Neu5Ac(a2-3)Gal(b1-3)]GalNAc
# Summary of the method: (§1)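 Glycan array data came from 3228 arrays in the Consortium for Functional Glycomics database, and only arrays with an available protein sequence were kept. Glycan names were put into IUPAC-condensed notation, and columns mapping to the same glycan were averaged. The binding signal is a within-array Z-score, averaged across arrays of one protein sequence run at different concentrations or buffers and across linkers. A negative Z-score can be read as non-binding.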
# [2] = molecular target: Neu5Ac(a2-3)Gal(b1-4)GlcNAc6S
# Summary of the method: as §1
# [3] = molecular target: Neu5Ac(a2-3)Gal(b1-4)[Fuc(a1-3)]GlcNAc
# Summary of the method: as §1
# [4] = molecular target: Neu5Ac(a2-3)Gal(b1-4)[Fuc(a1-3)]GlcNAc(b1-2)Man
# Summary of the method: as §1
# [5] = molecular target: Neu5Ac(a2-3)Gal(b1-4)[Fuc(a1-3)]GlcNAc(b1-3)Gal
# Summary of the method: as §1
# [6] = molecular target: Neu5Ac(a2-3)Gal(b1-4)[Fuc(a1-3)]GlcNAc(b1-3)Gal(b1-4)GlcNAc
# Summary of the method: as §1
# [7] = molecular target: Neu5Ac(a2-3)Gal(b1-4)[Fuc(a1-3)]GlcNAc(b1-3)Gal(b1-4)[Fuc(a1-3)]GlcNAc(b1-3)Gal(b1-4)[Fuc(a1-3)]GlcNAc
# Summary of the method: as §1
# [8] = molecular target: Neu5Ac(a2-3)Gal(b1-4)[Fuc(a1-3)]GlcNAc(b1-3)GalNAc
# Summary of the method: as §1
# [9] = molecular target: Neu5Ac(a2-3)Gal(b1-4)[Fuc(a1-3)]GlcNAc(b1-6)[Gal(b1-3)]GalNAc
# Summary of the method: as §1
# [10] = molecular target: Neu5Ac(a2-3)Gal(b1-4)[Fuc(a1-3)]GlcNAc(b1-6)[Neu5Ac(a2-3)Gal(b1-3)]GalNAc
# Summary of the method: as §1
# [11] = molecular target: Neu5Ac(a2-3)Gal(b1-4)[Fuc(a1-3)]GlcNAc6S
# Summary of the method: as §1
# [12] = molecular target: Neu5Ac(a2-3)Gal6S(b1-4)GlcNAc
# Summary of the method: as §1
# [13] = molecular target: Neu5Ac(a2-3)Gal6S(b1-4)[Fuc(a1-3)]GlcNAc
# Summary of the method: as §1
# [14] = molecular target: Neu5Ac(a2-3)GalNAc
# Summary of the method: as §1
# [15] = molecular target: Neu5Ac(a2-3)GalNAc(b1-4)GlcNAc
# Summary of the method: as §1
# [16] = molecular target: Neu5Ac(a2-3)[GalNAc(b1-4)]Gal(b1-4)Glc
# Summary of the method: as §1
# [17] = molecular target: Neu5Ac(a2-3)[GalNAc(b1-4)]Gal(b1-4)GlcNAc
# Summary of the method: as §1
# [18] = molecular target: Neu5Ac(a2-3)[GalNAc(b1-4)]Gal(b1-4)GlcNAc(b1-3)GalNAc
# Summary of the method: as §1
# [19] = molecular target: Neu5Ac(a2-3)[Neu5Ac(a2-6)]GalNAc
# Summary of the method: as §1
# [20] = molecular target: Neu5Ac(a2-6)Gal
# Summary of the method: as §1
# [21] = molecular target: Neu5Ac(a2-6)Gal(b1-3)GlcNAc(b1-3)[Gal(b1-4)GlcNAc(b1-6)]Gal(b1-4)Glc
# Summary of the method: as §1
# [22] = molecular target: Neu5Ac(a2-6)Gal(b1-4)Glc
# Summary of the method: as §1
# [23] = molecular target: Neu5Ac(a2-6)Gal(b1-4)GlcNAc
# Summary of the method: as §1
# [24] = molecular target: Neu5Ac(a2-6)Gal(b1-4)GlcNAc(b1-2)Man
# Summary of the method: as §1
# [25] = molecular target: Neu5Ac(a2-6)Gal(b1-4)GlcNAc(b1-2)Man(a1-3)Man(b1-4)GlcNAc(b1-4)GlcNAc
# Summary of the method: as §1
# [26] = molecular target: Neu5Ac(a2-6)Gal(b1-4)GlcNAc(b1-2)Man(a1-3)[Gal(b1-4)GlcNAc(b1-2)Man(a1-6)]Man(b1-4)GlcNAc(b1-4)GlcNAc
# Summary of the method: as §1
# [27] = molecular target: Neu5Ac(a2-6)Gal(b1-4)GlcNAc(b1-2)Man(a1-3)[GlcNAc(b1-2)Man(a1-6)]Man(b1-4)GlcNAc(b1-4)GlcNAc
# Summary of the method: as §1
# [28] = molecular target: Neu5Ac(a2-6)Gal(b1-4)GlcNAc(b1-2)Man(a1-3)[GlcNAc(b1-4)][Neu5Ac(a2-6)Gal(b1-4)GlcNAc(b1-2)Man(a1-6)]Man(b1-4)GlcNAc(b1-4)GlcNAc
# Summary of the method: as §1
# [29] = molecular target: Neu5Ac(a2-6)Gal(b1-4)GlcNAc(b1-2)Man(a1-3)[Man(a1-6)]Man(b1-4)GlcNAc(b1-4)GlcNAc
# Summary of the method: as §1
# [30] = molecular target: Neu5Ac(a2-6)Gal(b1-4)GlcNAc(b1-2)Man(a1-3)[Neu5Ac(a2-3)Gal(b1-4)GlcNAc(b1-2)Man(a1-6)]Man(b1-4)GlcNAc(b1-4)GlcNAc
# Summary of the method: as §1
# [31] = molecular target: Neu5Ac(a2-6)Gal(b1-4)GlcNAc(b1-2)Man(a1-3)[Neu5Ac(a2-6)Gal(b1-4)GlcNAc(b1-2)Man(a1-6)]Man(b1-4)GlcNAc(b1-4)GlcNAc
# Summary of the method: as §1
# [32] = molecular target: Neu5Ac(a2-6)Gal(b1-4)GlcNAc(b1-2)Man(a1-3)[Neu5Ac(a2-6)Gal(b1-4)GlcNAc(b1-2)Man(a1-6)]Man(b1-4)GlcNAc(b1-4)[Fuc(a1-6)]GlcNAc
# Summary of the method: as §1
# [33] = molecular target: Neu5Ac(a2-6)Gal(b1-4)GlcNAc(b1-2)Man(a1-6)Man(b1-4)GlcNAc(b1-4)GlcNAc
# Summary of the method: as §1
# [34] = molecular target: Neu5Ac(a2-6)Gal(b1-4)GlcNAc(b1-2)Man(a1-6)[Gal(b1-4)GlcNAc(b1-2)Man(a1-3)]Man(b1-4)GlcNAc(b1-4)GlcNAc
# Summary of the method: as §1
# [35] = molecular target: Neu5Ac(a2-6)Gal(b1-4)GlcNAc(b1-2)Man(a1-6)[GlcNAc(b1-2)Man(a1-3)]Man(b1-4)GlcNAc(b1-4)GlcNAc
# Summary of the method: as §1
# [36] = molecular target: Neu5Ac(a2-6)Gal(b1-4)GlcNAc(b1-2)Man(a1-6)[Man(a1-3)]Man(b1-4)GlcNAc(b1-4)GlcNAc
# Summary of the method: as §1
# [37] = molecular target: Neu5Ac(a2-6)Gal(b1-4)GlcNAc(b1-2)[Neu5Ac(a2-6)Gal(b1-4)GlcNAc(b1-4)]Man(a1-3)[GlcNAc(b1-4)][Neu5Ac(a2-6)Gal(b1-4)GlcNAc(b1-2)[Neu5Ac(a2-6)Gal(b1-4)GlcNAc(b1-6)]Man(a1-6)]Man(b1-4)GlcNAc(b1-4)GlcNAc
# Summary of the method: as §1
binder,measurement,setting,value
AMA (Arum maculatun) (protein) MAKLLLLLLLPAIVGLAVPRSAAAVGSNYMLSGETLNTDGRLTNGELTLIMQVDCNLVLYHGGWQSNTANNGRDCKLTLTDFGELVIKSGTGSTVWSSGSKQSMKGNYAAVVHPEGRLVIYGPSVFKINPSGAGLNGLPLRNIPLTNNMLFSGQVLYGDGTLSARNHKLVMQGDCNMVLYGGKYGWQSNTHGNGKYCFAMLTHKGELVIRDDDFKSVWSSKSSSKQGDYVFILQDDSLAIIYGPAVFSTGSKKMISMVTN,glycan array binding signal (z-score),[1],-0.215
same,glycan array binding signal (z-score),[2],-0.209
same,glycan array binding signal (z-score),[3],-0.217
same,glycan array binding signal (z-score),[4],-0.208
same,glycan array binding signal (z-score),[5],-0.211
same,glycan array binding signal (z-score),[6],-0.216
same,glycan array binding signal (z-score),[7],-0.189
same,glycan array binding signal (z-score),[8],-0.201
same,glycan array binding signal (z-score),[9],-0.196
same,glycan array binding signal (z-score),[10],-0.202
same,glycan array binding signal (z-score),[11],-0.218
same,glycan array binding signal (z-score),[12],-0.211
same,glycan array binding signal (z-score),[13],-0.22
same,glycan array binding signal (z-score),[14],-0.215
same,glycan array binding signal (z-score),[15],-0.217
same,glycan array binding signal (z-score),[16],-0.219
same,glycan array binding signal (z-score),[17],-0.214
same,glycan array binding signal (z-score),[18],-0.21
same,glycan array binding signal (z-score),[19],-0.221
same,glycan array binding signal (z-score),[20],-0.215
same,glycan array binding signal (z-score),[21],-0.214
same,glycan array binding signal (z-score),[22],-0.208
same,glycan array binding signal (z-score),[23],-0.211
same,glycan array binding signal (z-score),[24],-0.212
same,glycan array binding signal (z-score),[25],-0.202
same,glycan array binding signal (z-score),[26],0.94
same,glycan array binding signal (z-score),[27],0.845
same,glycan array binding signal (z-score),[28],-0.218
same,glycan array binding signal (z-score),[29],-0.063
same,glycan array binding signal (z-score),[30],0.215
same,glycan array binding signal (z-score),[31],0.436
same,glycan array binding signal (z-score),[32],0.863
same,glycan array binding signal (z-score),[33],-0.21
same,glycan array binding signal (z-score),[34],1.15
same,glycan array binding signal (z-score),[35],1.33
same,glycan array binding signal (z-score),[36],0.252
same,glycan array binding signal (z-score),[37],-0.219
